# Laboratory results reported in PubChem BioAssay AID686979 (National Center for Advancing Translational Sciences (NCATS), 2013).
# Several values for one entry are separate records, joined by “and”; a condition that tells them apart may be missing. Equal values may be shown once. About 50,000 (12%) of roughly 420,000 compounds were called active. The inconclusive results got no clear call from the source; some entries with a clear call stand among them for comparison. Calls follow the shape of the dose curve; as a rule, active = well fitted inhibition curve with a large enough effect; inconclusive = small, poorly fitted or top-dose-only effect; inactive = flat fitted curve, though single readings scatter. No potency is given beside an inconclusive call; the fits are too rough.
# Test: qHTS for Inhibitors of human tyrosyl-DNA phosphodiesterase 1 (TDP1): qHTS in cells in presence of CPT; also: nearly all actives have a fitted effect of over 55% in size
# Conditions: chicken DT40 Tdp1-/-;hTDP1 cells + 20 nM CPT, ATP luminescence, 48 h; activity change, negative = growth inhibition: at 46.2 µM (top of the series)
# How it was run: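 Cell growth measured by CellTiter-Glo luminescence after a minimum 48 h, 37 C compound exposure with 20 nM CPT in Tdp1-knockout DT40 cells stably expressing hTDP1, seeded 400/well; qHTS titration format.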
# % is scaled to controls: 0 for no effect and ±100 for the full control effect; potency is read from the fitted curve at half-maximal effect; tags tell the direction and shape of the fitted curve.
SMILES,Potency,"activity change, negative = growth inhibition"
Cc1cc(C)cc(N/C(N)=N/c2nc(C)cc(C)n2)c1,"inconclusive [inhibitor, single point]",
CCOC(=O)c1c(C)[nH]c(C)c1S(=O)(=O)N1CCC(C(=O)Nc2ccc(C)c(N(C)C)c2)CC1,,inactive: -25.7%
C#CCOCCOCCOCCNc1nc(N2CCN(C(=O)[C@H](CCC(=O)O)n3cc([C@@H](N)[C@H](C)CC)nn3)CC2)nc(N2CCN(C(=O)[C@H](CCC(=O)O)n3cc([C@@H](N)CCSC)nn3)CC2)n1,,inactive: -6.71%
CC1(C)COC2(OC1)C(=O)N(CN1CCOCC1)c1ccccc12,"inconclusive [inhibitor, single point]",
Cc1ccc(C)c(NC(=O)c2cnn(-c3ccccc3)c2C)c1,,inconclusive: -38.5% [inhibitor]
CN(CC(=O)NC(=O)NC(C)(C)C)CC(=O)Nc1ccccc1Cl,,inactive: -1.72%
O=C(Nc1ccnn1C1CCN(Cc2cc(Cl)ccc2O)CC1)c1cccnc1,"inconclusive [inhibitor, single point]",
Cc1cc(-c2ccc(C)c(S(=O)(=O)NCc3cccs3)c2)on1,active: 11.6 µM,
CC(C)CCSc1nc(N)c(C#N)cc1C#N,"inconclusive [inhibitor, single point]",
CCc1ccc(N2C(=O)CN(S(=O)(=O)CC)CC2(C)C(=O)NC2CCCCC2)cc1 (stereo not given),,inactive: -10.8%
CCN(CC)S(=O)(=O)c1ccc(NC(=O)C(C)N(c2ccc(OC)cc2)S(C)(=O)=O)cc1 (stereo not given),"inconclusive [inhibitor, single point]",
O=S(=O)(c1cnc(Cl)c(Cl)c1)N1CCc2ccccc21,"inconclusive [inhibitor, single point]",
CSc1ccc(/C=N/NC(=O)c2ccc(C)c(C)c2)cc1,"inconclusive [inhibitor, single point]",
O=C(CC(c1cccs1)S(=O)(=O)c1ccccc1)c1ccc(F)cc1 (stereo not given),,inactive: -17.6%
O=C(Nc1ccccc1C(=O)NC(Cc1ccccc1)C(=O)O)c1ccccc1 (stereo not given),,inactive: -7.07%
Cc1ccc(C(=O)Nc2c(C)n(C)n(-c3ccccc3)c2=O)cc1S(=O)(=O)N1CCCCC1,,inactive: 6.47%
CCn1cc(C(=O)OCC(=O)c2cc(C)n(-c3ccc(OC(F)F)cc3)c2C)c(=O)c2ccc(C)nc21,"inconclusive [inhibitor, single point]",
O=c1[nH]c(=S)[nH]c2c1C(c1ccc(Cl)cc1)OC(C1CCCCC1)C2 (stereo not given),"inconclusive [inhibitor, single point]",
CCN1CCN(C(=O)Cn2nc(C)c3sc4ccccc4c3c2=O)CC1,,inactive: -0.191%
Cc1nn(-c2ccc(F)cc2)c(Cl)c1/C=C1\C(=O)Nc2ccccc21,active: 6.51 µM,
COc1ccccc1NC(=O)c1cc2n(n1)C(C(F)(F)F)CC(c1ccc3c(c1)OCO3)N2 (stereo not given),active: 16.4 µM,
COc1cccc2sc(Nc3nc(-c4ccncc4)cs3)nc12,active: 4.61 µM,
O=C(CNC(=O)c1ccccc1)OCc1cc(=O)n2nc(C3CC3)sc2n1,,inactive: 6.71%

SMILES,Potency,"activity change, negative = growth inhibition"
CC(=O)c1ccc(S(=O)(=O)N2CCC(NC(=O)Nc3cccc(F)c3)CC2)cc1,,inconclusive: -31.4% [inhibitor]
CC1CCN(CCCCOc2ccc(F)cc2)CC1,,inactive: 8.53%
NC(=O)c1ccc[n+](Cc2ccccc2)c1,,inactive: -5.5%
Cc1cc(/C=N/NC(=O)c2c(Br)cnn2C)c(C)n1-c1cccc(Br)c1,"inconclusive [inhibitor, single point]",
CC(C)(C)c1csc(NC(=O)CSC2=NCCS2)n1,"inconclusive [inhibitor, partial curve]",
COc1ccccc1N1CCN(C(=O)CCNS(=O)(=O)c2ccc(Br)s2)CC1,active: 23.1 µM,
CCCCn1c(=O)[nH]c(=O)c2c(C(=O)OCC)cc(-c3ccc(OC(F)F)cc3)nc21,"inconclusive [inhibitor, single point]",
COc1ccc(N2CCN(c3ncnc4c3cnn4-c3ccc(C)cc3C)CC2)cc1,"inconclusive [inhibitor, partial curve]",
CCOc1ccc2nc(SCC(=O)N3CCCCCC3)c(C#N)cc2c1,"inconclusive [inhibitor, single point]",
CC(C)n1cnc2c(Nc3cccc(Cl)c3)nc(N(CCO)CCCO)nc21,active: 10.3 µM,
O=C(c1ccco1)N1CCN(C(c2cccs2)c2nnnn2C2CCCCC2)CC1 (stereo not given),"inconclusive [inhibitor, partial curve]",
Cc1ccc(Nc2c(-c3ccc(C)o3)nc3cccc(C)n23)cc1,active: 14.6 µM and active: 11.2 µM,
CCOc1ccccc1N1CCN(S(=O)(=O)c2ccc(Cl)s2)CC1,"inconclusive [inhibitor, single point]",
Cc1[nH]n(-c2ccc(Br)cc2)c(=O)c1C=Nc1ccc(S(=O)(=O)Nc2nccs2)cc1,"inconclusive [inhibitor, partial curve]",
C=CCNC(=O)c1cccc2c1C(=O)c1ccc(N3CCCC3)cc1S2(=O)=O,"inconclusive [inhibitor, single point]",
COCCN1CCN(C(=O)c2cnn(-c3nccc(-c4ccccc4OC)n3)c2-c2ccco2)CC1,,inactive: -0.77% [at 9.04 µM]
CCC1(CC)C(=O)NC(=O)NC1=NCCc1c[nH]c2ccccc12,,inactive: 3.26%
COC(=O)C1=CN(c2ccc(OC)cc2OC)C(N)=C(C#N)C1c1ccccc1F (stereo not given),active: 0.82 µM,
O=c1c2oc3ccccc3c2n(Cc2ccc(Cl)cc2)c(=O)n1Cc1ccccc1,"inconclusive [inhibitor, partial curve]",
Cc1[nH]c2ccccc2c1C(=O)CN1CCN(c2ccc(Cl)cc2)CC1,,inactive: 8.49%
CC(C)c1ccc(NC(=O)c2cc(-c3cc(F)ccc3OCC3CCCO3)n[nH]2)cc1 (stereo not given),"inconclusive [inhibitor, single point]",
COc1ccc(CNC(=O)C(=O)N2CCC3(CC2)OCCN3S(=O)(=O)c2ccc(C)cc2)cc1,,inactive: -16.3%
